Scores with a large standard error are left out. The source holds two more conditions with little spread; they are left out. In variant names, del marks residues removed and ins residues inserted between the two positions. For some of these results: The concentration of ogerin is not given here.
B1: GPR68, Q15743 (parent)
chain: MGNITADNSSMSCTIDHTIHQTLAPVVYVTVLVVGFPANCLSLYFGYLQIKARNELGVYLCNLTVADLFYICSLPFWLQYVLQHDNWSHGDLSCQVCGILLYENIYISVGFLCCISVDRYLAVAHPFRFHQFRTLKAAVGVSVVIWAKELLTSIYFLMHEEVIEDENQHRVCFEHYPIQAWQRAINYYRFLVGFLFPICLLLASYQGILRAVRRSHGTQKSRKDQIQRLVLSTVVIFLACFLPYHVLLLVRSVWEASCDFAKGVFNAYHFSLLLTSFNCVADPVLYCFVSETTHRDLARLRGACLAFLTCSRTGRAREAYPLGAPEASGKSGAQGEEPELLTKLHPAFQTPNSPGSGGFPTGRLA

Experiments:
[1] = variants of: B1; test: cAMP reporter score (Enrich2 score, wild type = 0); higher = more signal; HEK293T, FACS bins
[2] = variants of: B1; test: surface expression score (Enrich2 score, wild type = 0); higher = more signal; HEK293T, FACS bins

Variant | cAMP reporter score ([1]; pH 5.5) | cAMP reporter score ([1]; pH 6) | cAMP reporter score ([1]; pH 6, modulator: ogerin) | cAMP reporter score ([1]; pH 6.5, modulator: ogerin) | surface expression score [2]
P360M | 0.817 | 0.548 | 1.05 | 1.44 | 0.774
P360N | 1.64 | 0.532 | 1.48 | -0.43 | 2.41
P360Q | 0.069 | -1.12 | -0.361 | -0.707 | -0.661
P360R | 0.683 | -0.189 | 0.253 | 0.689 | 0.096
P360S | 0.655 | -0.018 | 0.49 | 1.31 | 0.285
P360T | 0.128 | -0.011 | 0.3 | -0.296 | -0.172
P360V | 0.6 | 0.213 | 0.062 | 0.674 | -0.16
P360W | 0.418 | -0.426 | 0.431 | -0.15 | -0.289
P360Y | 0.855 |  | 0.124 | 0.378 | 1.17
T361A | 0.26 | -0.358 | 0.378 | 0.009 | 0.389
T361C | 0.398 | 0.294 | 0.387 | 0.51 | -0.429
T361D | -0.729 | 0.947 | -0.841 | -0.561 | -0.497
T361E | 0.012 | 0.313 | 1.06 | 0.56 | 0.612
T361F | 0.077 | -0.667 | 0.266 | 0.09 | -0.42
T361H | -0.613 | -1.41 | -1.07 | -1.24 | 0.382
T361I | -0.01 | 0.001 | -0.108 | -0.339 | -0.789
T361K | -0.206 | -1.25 | 0.25 | -0.101 | -0.231
T361L | 0.525 | -0.035 | 0.707 | 0.065 | -0.101
T361M | 0.066 | -0.28 | 0.009 | -0.259 | 0.641
T361N | 2.17 | 2.78 |  | 0.99 | 2.73

Variant | cAMP reporter score ([1]; pH 5.5) | cAMP reporter score ([1]; pH 6) | cAMP reporter score ([1]; pH 6, modulator: ogerin) | cAMP reporter score ([1]; pH 6.5, modulator: ogerin) | surface expression score [2]
T361P | -0.49 | -0.108 | 0.509 | -0.636 | 0.033
T361R | 0.592 |  | 0.58 | 1.95 | 0.745
T361S | 0.542 | -1.04 | 0.658 | 0.732 | 0.136
T361V | 0.348 | -0.252 | 0.316 | -0.343 | -0.085
T361W | -0.484 | -0.52 | 0.333 | -0.721 | 0.037
T361Y | 0.739 |  | -0.195 |  | -0.333
R363_L364insGS | 1.28 | 0.418 | 0.973 | 2.3 | 1.15
R363_L364insGSG | 0.416 | 0.046 | 0.598 | 0.881 | 0.478
R363del | -0.118 | -0.48 | 0.149 | 0.49 | -0.084
L364A | 1.37 | 0.561 | 1.12 | 1.66 | 1.73
L364C | 0.844 | 0.94 | 1.31 | 0.205 | 0.836
L364E | 0.8 | 0.725 | 0.401 | 0.948 | 0.966
L364F | -0.355 | 0.102 | -0.302 | 0.261 | 0.053
L364G | 1.57 | 1.03 | 1.43 | 1.66 | 1.28
L364H | 1.48 | 1.79 | 1.63 | 1.33 | 
L364I | 0.986 | 0.163 | 1.27 | 1.04 | 1.53
L364K | -0.253 | 0.026 | 0.591 | 0.361 | -0.001
L364M | 0.656 |  | 0.355 | 1.14 | 0.493
L364N | 0.246 | 0.678 | -0.259 | 0.047 | -0.019
L364P | -0.021 | 1.95 | 0.677 | 2.75 | 

Variant | cAMP reporter score ([1]; pH 5.5) | cAMP reporter score ([1]; pH 6) | cAMP reporter score ([1]; pH 6, modulator: ogerin) | cAMP reporter score ([1]; pH 6.5, modulator: ogerin) | surface expression score [2]
L364Q | 0.421 | -1.01 | 0.188 | 0.251 | -0.556
L364R | 1.32 | 0.54 |  | 0.107 | 
L364S | 1.32 | 0.518 | 0.495 | 0.919 | 2.76
L364T | 0.215 | 0.96 | -0.42 | 0.613 | -0.051
L364V | -0.429 | 1.59 |  |  | 
L364W | 0.498 | 0.823 | 1.24 | 0.942 | 0.502
L364Y | 0.038 | -0.47 | -0.3 | 0.141 | 0.208
A365C | 0.88 | 1.85 | 1.57 | 1.03 | -0.219
A365D | 0.375 | 1.22 | -0.29 | -0.088 | 0.702
A365E | -0.873 | -0.162 | -0.957 | -0.64 | -1.27
A365F | 0.64 | 0.105 | 0.437 | 0.65 | -0.096
A365G | 0.219 | -0.094 | 0.817 | 1.09 | 0.922
A365H | 0.019 |  | -0.298 | 0.29 | -0.727
A365I | -0.075 |  | -0.091 | 0.754 | -0.11
A365K | -0.119 | 0.02 | -0.05 | -0.006 | -0.019
A365L | -0.129 | -0.15 | -0.181 | -0.243 | 0.208
A365M | -0.446 | -1.53 | -0.215 | -0.796 | -0.409
A365N | -0.294 | -0.682 | -0.107 | -0.411 | 0.487
A365P | -0.347 | 0.923 | 0.31 | -0.149 | 0.028
